Measurements taken from article PMC4336329 (PLoS ONE, 2015).
The campaign covered roughly 310,000 compounds. About 2,200 (0.71%) showed an effect of 50% or more. Effects have a minus sign here. The list shows a part of the results.

biological target: human ether-à-go-go-related gene (hERG) potassium channel (human, UniProt Q12809); experiment: primary screen, population patch clamp on CHO cells stably expressing hERG
Sequence (Q12809 whole entry, looked up): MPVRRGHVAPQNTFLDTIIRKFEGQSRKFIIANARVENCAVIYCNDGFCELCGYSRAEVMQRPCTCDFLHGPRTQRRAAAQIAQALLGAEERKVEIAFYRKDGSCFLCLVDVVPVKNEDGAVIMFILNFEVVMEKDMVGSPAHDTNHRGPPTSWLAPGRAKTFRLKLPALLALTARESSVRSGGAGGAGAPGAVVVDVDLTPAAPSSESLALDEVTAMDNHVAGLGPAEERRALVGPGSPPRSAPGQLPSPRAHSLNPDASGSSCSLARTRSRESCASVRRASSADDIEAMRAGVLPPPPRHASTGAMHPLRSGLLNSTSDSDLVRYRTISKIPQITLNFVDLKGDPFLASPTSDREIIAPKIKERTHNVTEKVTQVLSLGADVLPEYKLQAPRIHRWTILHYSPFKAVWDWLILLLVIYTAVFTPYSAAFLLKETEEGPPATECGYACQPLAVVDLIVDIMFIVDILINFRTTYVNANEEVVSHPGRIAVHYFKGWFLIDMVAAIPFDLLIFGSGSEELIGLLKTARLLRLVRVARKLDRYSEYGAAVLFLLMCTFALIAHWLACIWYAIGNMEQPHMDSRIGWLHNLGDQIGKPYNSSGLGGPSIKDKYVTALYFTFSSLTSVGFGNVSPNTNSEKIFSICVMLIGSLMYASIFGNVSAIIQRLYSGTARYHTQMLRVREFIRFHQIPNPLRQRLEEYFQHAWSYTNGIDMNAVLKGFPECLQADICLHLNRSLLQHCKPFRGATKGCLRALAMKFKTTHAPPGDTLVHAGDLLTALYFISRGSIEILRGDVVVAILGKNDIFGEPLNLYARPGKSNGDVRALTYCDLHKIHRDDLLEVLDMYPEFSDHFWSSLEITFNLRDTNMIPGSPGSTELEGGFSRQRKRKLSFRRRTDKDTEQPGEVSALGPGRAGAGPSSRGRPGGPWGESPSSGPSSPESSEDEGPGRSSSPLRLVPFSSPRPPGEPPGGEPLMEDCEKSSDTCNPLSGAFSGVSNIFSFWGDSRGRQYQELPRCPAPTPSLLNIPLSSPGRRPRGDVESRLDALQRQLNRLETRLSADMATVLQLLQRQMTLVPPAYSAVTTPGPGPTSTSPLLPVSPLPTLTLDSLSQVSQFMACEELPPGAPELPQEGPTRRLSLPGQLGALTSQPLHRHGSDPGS

| SMILES | hERG current change (%, negative = inhibition) at 1uM |
| --- | --- |
| O=c1cc(CSc2ccccc2)[nH]c2ccccc12 | 14% |
| O=C(NN1C(=O)C2C3C=CC(C3)[C@H]2C1=O)c1cccnc1 (some centres unmarked) | 17.1% |
| COc1ccc(NC(=O)CN(C)C(=O)C2=NN(c3ccccc3)C(=O)CC2)cc1 | 13.8% |
| O=C1CN(C(=O)COc2ccccc2Cl)c2ccccc2N1 | 1.21% |
| O=C1NC(Cc2ccccc2)c2nc3ccccc3c(=O)n2-c2cc(Cl)ccc21 (centres unmarked) | 9.83% |
| COc1ccc(C2C(C(=O)c3ccc(C)o3)=C(O)C(=O)N2Cc2ccco2)cc1OC (centres unmarked) | 12.4% |
| COc1ccc(CNC(=O)c2cccc(NC(=O)c3ccccc3)c2)cc1 | -25.7% |
| OCCNCCCOc1cc(Cl)ccc1Cl | 8.45% |
| Cc1nc(N)c(C#N)c(-c2cccnc2)c1-c1ccccc1 | 3.28% |
| COC(=O)CSC1=C(C#N)C(c2ccc(C(C)C)cc2)CC(=O)N1 (centres unmarked) | 11% |
| O=C(O)/C=C/C(=O)c1ccc2c(c1)CCc1ccccc1-2 | 11.3% |
| Cc1cccc(C(=O)OC2CCOC2=O)c1C (centres unmarked) | 9.18% |
| Cc1cnc(C(=O)OC(C(=O)c2ccccc2)c2ccccc2)cn1 (centres unmarked) | 5.37% |
| COc1ccc(N=c2ssnc2Cl)cc1 | 13.9% |
| COc1ccc([C@H]2CC(=O)C=C(c3cc(C=O)ccc3OC)C2)cc1OC | 0.902% |
| Cc1ccc(-n2nnnc2-c2cnc(-c3cccnc3)nc2C(F)(F)F)cc1 | -2.33% |
| CN(C)N1C(N)=C(C#N)C(c2ccc3c(c2)OCO3)C2=C1CCCC2=O (centres unmarked) | 7.08% |
| O=c1ccc(-c2ccc(S(=O)(=O)N3CCN(c4ccccc4)CC3)o2)n[nH]1 | 6.36% |
| CCC1=NN(C(=O)Cc2ccc([N+](=O)[O-])cc2)C(O)(C(C)(C)C)C1 (centres unmarked) | -13.3% |

| SMILES | hERG current change (%, negative = inhibition) at 1uM |
| --- | --- |
| O=[N+]([O-])c1ccc(N2CCCCC2)c(Cl)c1N1CCCCC1 | 8.22% |
| Cc1ccc(-c2onc(C)c2C)cc1S(=O)(=O)N1CC(C)Oc2ccccc21 (centres unmarked) | 12.6% |
| Cc1ccc(OCCOc2ccc(Br)cc2)c([N+](=O)[O-])n1 | 16.8% |
| CN1C2CCC1/C(=C\c1ccccc1F)C(=O)/C2=C/c1ccccc1F | 9.1% |
| Cc1cc(C)nc(NC2=NCC(=O)N2c2ccc(Cl)cc2)n1 | 10.5% |
| COc1ccc2sc(N(CCCN(C)C)C(=O)c3ccc(C(=O)c4ccccc4)cc3)nc2c1.Cl | 3.35% |
| CCN(CC)S(=O)(=O)c1cc(NC(=O)C(CC(C)C)NC(N)=O)ccc1C (centres unmarked) | 6.19% |
| CCOC(=O)C1CCN(CC(C)(C)NS(=O)(=O)c2ccc(Cl)cc2)CC1 | 6.18% |
| Cc1ccc2nc(-c3ccc(NC(=O)COC(=O)c4ccc(=O)[nH]c4)cc3)sc2c1 | -0.499% |
| CCOP(=O)(OCC)C(NC(=O)C(Cl)Cl)C(Cl)(Cl)Cl (centres unmarked) | 14.7% |
| COc1ccc(NC(=O)COC(=O)c2ccc(F)cc2F)cc1 | 9.87% |
| O=C(CSc1nnnn1-c1ccccc1)NCc1ccco1 | 5.98% |
| CCCN1C(=O)/C(=C/C=C2\N(CC)c3ccccc3C2(C)C)SC1=S | 5.72% |
| CC(C)[C@H](NC(=O)c1ccccc1)C(=O)OCC(=O)N1CC(=O)Nc2ccccc21 | 10.2% |
| N=c1c2c(ncn1CCCO)Oc1cc(O)ccc1C2c1ccccc1 (centres unmarked) | 0.259% |
| CC(C)OC(=O)CSc1nnc2n1C(C)(C)Cc1ccccc1-2 | 13.2% |
| C[C@H](NC(=O)OC(C)(C)C)C(=O)NCC1CCC(C(=O)O)CC1 (some centres unmarked) | 6.25% |
| Cc1c(Br)cc(C(=O)N2CCCCCC2)c(C)c1C | -8.1% |
| CCCCCCCN=CC1=C(O)CC(c2ccccc2)CC1=O (centres unmarked) | 3.33% |

| SMILES | hERG current change (%, negative = inhibition) at 1uM |
| --- | --- |
| NC(=O)c1cc([N+](=O)[O-])c(Cl)cc1NCc1cccnc1 | 12.9% |
| CCOC(=O)N1CCN(CC(=O)Nc2ccc(F)cc2F)CC1 | -1.13% |
| COc1ccc(NC(=O)CS(=O)c2cccc(C(F)(F)F)c2)cc1 (centres unmarked) | 18.6% |
| COc1ccc(CC(=O)Oc2ccc(C(C)C)cc2)cc1S(=O)(=O)N1CCOCC1 | 19.2% |
| Cc1cc(C(=O)NCC(=O)OCC(=O)N(C2CCCCC2)C2CCCCC2)ccc1[N+](=O)[O-] | 6.44% |
| Cc1ccc2nc(N3CCN(C=O)CC3)nc(-c3ccccc3)c2c1 | -5.2% |
| O=C(Nc1ccccc1F)c1ccccc1-c1ccccc1 | 9.74% |
| Cc1ccc(-c2noc(-c3ccccc3C(=O)N3CCOCC3)n2)cc1 | 0.968% |
| N#CCNC(=O)c1cccn1-c1ncc(C(F)(F)F)cc1Cl | -11.6% |
| CC(Sc1nncs1)C(=O)Nc1ccc2c(c1)OCO2 (centres unmarked) | 21.4% |
| O=C1C(Cc2ccc(O)cc2)NC(=S)N1Cc1ccccc1 (centres unmarked) | 8.51% |
| COc1cc(/C=N/NC(=O)c2cc3c(ccc4ccccc43)o2)cc(OC)c1O | 11.2% |
| O=C(CC1CCS(=O)(=O)C1)Nc1ccc[nH]c1=O (centres unmarked) | 5.43% |
| COc1cc(NC(=O)CSc2nc3ccccc3n2-c2ccccc2)c(C)cc1[N+](=O)[O-] | 8.38% |
| O=C(/C=C/c1ccccc1)Nc1nnc(SCC(=O)c2ccc3ccccc3c2)s1 | 12.5% |
| Cc1ccc(C2CC2c2n[nH]c(=S)n2-c2ccc(Cl)cc2)cc1 (centres unmarked) | 12.8% |
| Cc1nc2sc3c(c2c(=O)n1/N=C/c1ccco1)CCCC3 | 13.2% |
| Cc1cc(S(=O)(=O)N(Cc2ccc(C(C)C)cc2)CC2CCCO2)ccc1-n1cnnn1 (centres unmarked) | -13% |
